# Measurements as given in the RNAGym collection of RNA variant scans (doi:10.7554/elife.90254).
# The source gives no read counts; variants with many changes may rest on few reads.
# B1: LINE1-mini (parent)
# chain: GGCAGAGCUCAACACAGCGUGGCAAAGUGGCUGUGGCUAGACUGCC
# Variants of: B1
# Assay: self-cleavage, relative activity (ratio to wild type); higher = more cleavage; in vitro, sequencing; the parent is a self-cleaving ribozyme
row,Variant,self-cleavage
1,GGCCGUUCUCAACACAGCGUGGCAAAGUGGCCGUGGCUAGACUGCC [A4C A6U G7U U32C],0.62
2,GGCUGAGCUCAACACAGCGUGGCAAAGUAGCUGUGGCAACACAGCC [A4U G29A U38A G40C U43A],0.02
3,GGCAGAGCUCAACACAGCGUCGCAAUGUGGCUGUGGUUAGACUGCC [G21C A26U C37U],0.04
4,GGCAGAGCUCAACGCAGCGUGGCAAAGUGGCUGUGGCUAUAAUGCC [A14G G40U C42A],0.01
5,GGCAGAGCUCAACAAAGAGUGGCAAAGUGGCUGAGGUUAGACUGCC [C15A C18A U34A C37U],0
6,GGCAGAGCUCAACACAGCGUGGCAAAGUUGCUGUGGUGGGACUGCC [G29U C37U U38G A39G],0.01
7,UGCAGAGCUCAACACAGCUUGGCAAAGUGGCGGUGGCUAGACUGCC [G1U G19U U32G],0.06
8,GGCAGAGCUCAAUAUCGCGUGGCAAAGUGGCUGUGUUUAGACUGCC [C13U C15U A16C G36U C37U],0.02
9,GGCAGAGCUCAACAUAGCGUGGCAAAGUGGCUGUCGCUAGACUGCA [C15U G35C C46A],0.03
10,AGCAGAUAUCAACACGGCCUGGCAAAGUGGCCGUGGCUAGACUGCC [G1A G7U C8A A16G G19C U32C],0.06
11,GGCAGAGCUCAACACAGCGUGGGAAAGUGGAUAUGGCUCGACUGUC [C23G C31A G33A A39C C45U],0.08
12,GGCAGACCUCAACACAGCGUGUCACAUUGGCUGUGGCUAUACUGCC [G7C G22U A25C G27U G40U],0.43
13,GGCAUAGCUCAACACAGCGAGGCAAAGUGGCUGUGGCUAGAGUGCC [G5U U20A C42G],0.04
14,GGCAGAACUCAACAAAACGUAGCAAAGUGGCUGUGGCUAGACUGCC [G7A C15A G17A G21A],0.3
15,AGCAGAGCUCAACACAGCGUGGCAAAGUGGCAGUGGCUAGGCUGCC [G1A U32A A41G],0.02
16,GGAAGAGCUCAACACAGCGGCGCAAAGUGGCUGUGGCUACACUGCC [C3A U20G G21C G40C],0.14
17,GGUAGAGUUCAACACAGCGUGGCAAAGUAGCUGUGGCUAGACUACC [C3U C8U G29A G44A],0.23
18,GGCAGAGCUCAACACAGCGUGGUAAAGUGGCUGUGGCUAGACUACU [C23U G44A C46U],0.24
19,GGCAGAGCUCAACACAGCGUGAGAAAGGAGCUGUGGAUAGACUGCC [G22A C23G U28G G29A C37A],0.03

row,Variant,self-cleavage
1,GGCAGAACUCAACACAGCGAGUCGAAGUGGCUGUGGCUAGACUACC [G7A U20A G22U A24G G44A],0.18
2,GCCAGAGAUCAACACAGCGUGGGAAAGUGGCUGUGGCUCGACUGCC [G2C C8A C23G A39C],0.08
3,GGCAAUGCUCAACACAGCGUGGCAAAGUGGCUGUGGCUAGACUGCA [G5A A6U C46A],0.2
4,ACCAGAGCUCAACACAGCGUGGCAAUGGGGCUGUGACUAGACUGCC [G1A G2C A26U U28G G36A],0.18
5,GGCAGAGCUCAACCCAGGGGGGCAAAGUGGCUAUAGGUAGAGUGCC [A14C C18G U20G G33A G35A C37G C42G],0.01
6,GGCAGAGCGCAACACACCGUGGCAAAGAGGGUAUGGCUAGACUGCC [U9G G17C U28A C31G G33A],0.04
7,GGCAGAGCUCAACACAGCGUGGCAAAGUGUGUGUGGCUAGACUGCU [G30U C31G C46U],0.05
8,GGAAGAGCUCAACACAGCGUGGCAAAGUGCCUGUGGGUAGACUGCC [C3A G30C C37G],0.05
9,GGCAGAGCUAAACACAGCGUGGCAAAGUGGCUGUGUCUAGACUGCU [C10A G36U C46U],0.03
10,GCCAGAGCUCAACACAGCGUUGCGAAGUGGCUGUGGCUAGACUGCC [G2C G21U A24G],0.26
11,GGCAGAGGUCAACACCGCGUGGCAAAGUGGCUGUGGCUAGGCUGCC [C8G A16C A41G],0.02
12,GGCAGAGCUCAACACCAGGUGGCAAAGUGGCUGUGGCUAGACUGCC [A16C G17A C18G],0.05
13,CGUAGAGCUCAACACAGCUUGGCAAAGCGGCUGUGGCUAGACUGCC [G1C C3U G19U U28C],0.26
14,GGCAGAGCUCAACUCAGCGUUGAAAUGUGGCUGUGGUUCGACUGCC [A14U G21U C23A A26U C37U A39C],0.05
15,GGAAGAGCUCAACACAGCGUGGCGUAGUGUCUGUGGCUAGACUGCC [C3A A24G A25U G30U],0.39
16,GGCAGAGCUCUACACAGCGUGGCAAAGAGUCUGUUGCGAGACUGUC [A11U U28A G30U G35U U38G C45U],0.01
17,GGCAGAGCCCGACACAGCGUGGCAAACUGGCUGUGUCUAAAGUGAC [U9C A11G G27C G36U G40A C42G C45A],0.01
18,GGCAGAGCUGAAAACAGCGUGGUAAAGUGGCUGUGGCUAGAGUGCC [C10G C13A C23U C42G],0.02
19,GACAGAGCACAACACAGCGUGGCGAAGUGGCUGUGACUAGAGUGUC [G2A U9A A24G G36A C42G C45U],0.48

row,Variant,self-cleavage
1,GGCAGAGCUCAAGACAGCGUGGCAUAGUGGCUGUGGCUAAACUGCC [C13G A25U G40A],0.03
2,GGCACAGCUCAACACCGCGGGGCAAAGUGGCUGUGGCUAGACUGCC [G5C A16C U20G],0.01
3,GGCAGAACUUAACACGGGGUGGCAAAGUGGCUGUGGCUAGACUGCC [G7A C10U A16G C18G],0.01
4,GGCAGAGCUCAACUCAGCGUGGCUAAGUGGCUGUGUCUAGACUGCC [A14U A24U G36U],0.03
5,GGAAGAGCUCAACAAAGCGUGGCAAAGUGGCUGUGGUUAGCCUGCC [C3A C15A C37U A41C],0.32
6,GGCAAAGCUCAACACAGCAUGGCUAAGUGGCUUUGGCUAGACUGCC [G5A G19A A24U G33U],0.04
7,GCUAGACCUAAACACAGCGUGGCAAAGUGGUUGUGGCUAGACUGUC [G2C C3U G7C C10A C31U C45U],0.05
8,GGCAGAGCUCAACACAGCGUGGCAAAGUGGGUGUGGCUAGACGGCG [C31G U43G C46G],0.03
9,GGCAGAGCUUAACAAAGCGUGGCAAAGUUGCUGUGGCUAGACUGAC [C10U C15A G29U C45A],0.07
10,GGCAGAGCUCACCACAGCGUGGCAAAGUGGCUGGGGCUUGACUGUC [A12C U34G A39U C45U],0
11,GGCAGAGCCCGACACAGCGUGGCAAAAUGGCUGUGGCUAGACUGCC [U9C A11G G27A],0.08
12,UGCAGAACUCAACACAGCGUGGCAAAGUGGCUGUGGCUAGAUUGAC [G1U G7A C42U C45A],0.07
13,GUCAGGGCUCAACACGGCGUGGCGAAGUGGCUGUGGCUAGACUGCC [G2U A6G A16G A24G],0.02
14,GCCAGUGCUCAACACAGCGUGGCAAAGUGUCUGUGGCUAGCCUGCC [G2C A6U G30U A41C],0.04
15,GGCAGAGCUCUGCACAGCGUGGCAAAGUAGCUGUGGCUAGACUCCC [A11U A12G G29A G44C],0
16,GGCAGAGCACAACACAGCGUGGCAAAGUGGCUGUGGCCAGACUUCC [U9A U38C G44U],0.05
17,GGCAGAACUCAACACAGCGUGGCAAAGUGGCUGUGGCUAUCCUGCC [G7A G40U A41C],0.73
18,GGCAGAGCUAAACACAGCGUGGCAAAGUGGUUGUGACUAGACUGCC [C10A C31U G36A],0
